Here are results for 73 sequences from paper PMC10726135.

Some of the results follow. At the low end of the ranking the order means little. Measured with an extract: partners may take part in the binding.

For the assay, the target named is T1, HNF4alpha2 (COS-7 nuclear extract) (UniProt P41235).
T1 sequence: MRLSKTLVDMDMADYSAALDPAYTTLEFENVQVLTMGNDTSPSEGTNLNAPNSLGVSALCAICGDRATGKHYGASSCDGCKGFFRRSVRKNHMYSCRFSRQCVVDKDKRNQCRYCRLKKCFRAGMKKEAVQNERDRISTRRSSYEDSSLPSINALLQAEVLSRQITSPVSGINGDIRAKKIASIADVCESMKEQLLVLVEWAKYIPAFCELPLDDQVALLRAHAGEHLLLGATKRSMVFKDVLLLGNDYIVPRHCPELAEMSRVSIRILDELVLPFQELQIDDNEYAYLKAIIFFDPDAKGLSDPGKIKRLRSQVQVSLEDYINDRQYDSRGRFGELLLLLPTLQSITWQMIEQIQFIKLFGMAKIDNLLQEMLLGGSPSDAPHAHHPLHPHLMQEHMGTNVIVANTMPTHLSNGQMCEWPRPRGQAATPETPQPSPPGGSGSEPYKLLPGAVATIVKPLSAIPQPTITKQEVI
Description: protein-binding microarray. The note with it: COS-7 nuclear extract on double-stranded Agilent 4x180k PBM; binding buffer, salt, pH and temperature not given; high values mean tight binding; double strand, one strand shown; sequences stand for … in …GCCTAGGGAGATTAGAGTATCGGTCGA
On to AACTGGACAAATTCCTGGGAACTGCGGACA, for which the binding signal (log2 normalized intensity) is -1.27.
On to GCTGGCCTCATGCCTTATCTACATAGTCCC, for which the binding signal (log2 normalized intensity) was 0.0173.
For the sequence AATAAGGCTGCGACCTGCTGGGCTGCATTC, the binding signal (log2 normalized intensity) was -1.29.
With AGGGGTTACTAGTGAGTTGGACTTTGGACC, the binding signal (log2 normalized intensity) worked out at 11.6.
As for GCCACTCATAGAACTGTCGCAGAAAACACA, the binding signal (log2 normalized intensity) was -1.23.
Next, CCTATGGGATCAAAGTGCGACAGGGAGATT: 2.93; GGTGTAGGGCAGAGGTCAGCCCACAGGTCA: 2.78.
Regarding AGAGTTCAAGAAGGGCAGTTGACAGAGGAC, the binding signal (log2 normalized intensity) was -0.674.
With CATACAATTCATGACTCTCTTATAGGTGTT, the binding signal (log2 normalized intensity) was found to be 1.81.
Next, TGAACCTAGATTCCAGGAAGAAAGATTGAA: -1.1.
With AGTCCAAAGGTCTGAGAACCAAGAGAGCCA, the binding signal (log2 normalized intensity) was determined as 0.782.
As for GGTGCTGCATGGGCTGAGCCCAGCAAACCT, the binding signal (log2 normalized intensity) is -1.24.
Take TGCTGGCTGGCGGCCTTTGGGTCCCTGGCC: the binding signal (log2 normalized intensity) is -0.641.
Turning to CATTCCAACACAGGGTCAATGTCCCCTTAG, the binding signal (log2 normalized intensity) is 3.01.
Regarding CACCCCCACGGTGCGCTGCCCCTCACTGCC, the binding signal (log2 normalized intensity) came out at 4.83.
In the case of CTGCTTACATTTTGCTCTGTTGTGTCAAAG, the binding signal (log2 normalized intensity) came out at 1.83.
GCAATGATCTTCATGAACTTCTGTCCACAG: the binding signal (log2 normalized intensity) was 0.611.
Regarding GAAGGACATAAATGTGCCCAGATAAGAACT, the binding signal (log2 normalized intensity) was -1.1.
As to ACTGCTCCACCAGCGCGTGCCTTCCCTGCA, the binding signal (log2 normalized intensity) was -1.23.
As to GATAGCAAGGAGACATCGCTCCTCCCTTCT, the binding signal (log2 normalized intensity) is -1.24.
Next, AAAGTTCTGCTGAGTATCCAAAGGTCAGTG: 5.25; GATCTGAACTCAAGCTCTTAAAGAAGCAGT: -0.875; AGGCAGTCTGTTGACCTTTGGCCAAGGGCA: 7.73.
With GCTTATCTGGGAGGGGGAGGTTTTGTGTCT, the binding signal (log2 normalized intensity) was 1.26.
Consider TAGGGACAGCTAGTCTAGACTTTGCTTTCT, for which the binding signal (log2 normalized intensity) worked out at 3.
As for TGTGCAGAGAGCAAACGAACCGGCAGCCGC, the binding signal (log2 normalized intensity) is -1.06.
Take GATTTGTAACCTGCAAAGAGCAAACTCCAG: the binding signal (log2 normalized intensity) was -0.952.
Next, ACTTACATCCTCAGGTAAAGATCAACCATC: -0.587.
GCGTAGCCCAAAGGTCAGTCTGCAGCTAAT: the binding signal (log2 normalized intensity) worked out at 2.48.
With TTTCCTAAATATGTTCCAAAGTTCAACCAG, the binding signal (log2 normalized intensity) is 4.11.
Next, ACTTTGGCCGTGAAGCCGTCCTGTCCTGGA: 0.362; AACACAAAAAGCCTGAGCATCTTATCAGCA: -1.23.
Consider ACTTGTTCCGGATAGCCAAATAGCCTGGTC, for which the binding signal (log2 normalized intensity) was -0.584.
For the sequence GGCTTAGCAGCTTGAGGCTCCGATAAACCC, the binding signal (log2 normalized intensity) was -0.935.
For CTGTGTATACAAAGATCAGTGTACTTAAAA, the binding signal (log2 normalized intensity) turned out to be 1.54.
Next, AACACTCACTGGGAGAGAAAGCTAATTTAA: -1.09; TTTCATCAGTCCAATTCACAGAACTCCCTA: -1.15; ACACTCTCAATCTTTGCCCTCTTGGTATCA: 2.62.
Consider GGGGAGGTCAACCAGGGAAATTACCCTCTA, for which the binding signal (log2 normalized intensity) was -0.241.
In the case of AGTTGAGGTGAATACACAGCTAGCAGGTGA it was -0.101; in that of AGACCTTTGTTCACTTGTTTATCTGCTGCC, 2.35.
On to AGAGCTCAGATGAACTTTGCCTTAGGCCAT, for which the binding signal (log2 normalized intensity) was found to be 3.41.
Next, GCTCCAGCCACTCATTCTTGGAATGCATTG: -0.921.
Take TTCCCTACCCGGCAAAGAATTGTGAGTCCA: the binding signal (log2 normalized intensity) is 1.79.
As for TTCAGAGATGATAAGCCCTGAGTAGTTCTT, the binding signal (log2 normalized intensity) came out at 0.316.
Next, GCATGTCTCTGGTCGGGGAGGTGTTTATCT: 1.78.
In the case of GGAGTATAGGAACATGAACTGAGCAGGCCT it was -1.04; in that of TGTATAATGACACTAGCAGAAGAGACAGTC, -1.04.
In the case of CACTCAATGCAGCAGCATTGGACCCTCCCA, the binding signal (log2 normalized intensity) stood at 5.46.
For the sequence CTCTCACTGCAGAAACTCTGCAGTAACTGT, the binding signal (log2 normalized intensity) stood at 0.0964.
With TCATGGGAATGAAAGGAGGTCATGTACATG, the binding signal (log2 normalized intensity) is 1.34.
In the case of TGTTTGTTTTGAGATAGGGTCTTGCTTTGT it was 1.76; in that of TTGAAATCTCAAATAGCTGGGTCTCACTCT, -1.1; in that of AAGTAGAGGAATGCTGGTAAACACTGAGCT, -1.14.
As for AGCAGCAAAGTCCTGGAAGAAACCCATTTG, the binding signal (log2 normalized intensity) was -1.14.
Next, TACACATCAAAGTATGAGAGCCTGAGAACA: -1.04.
For TCAAAGGGAGATTCCTGACATTCAGTCTTT, the binding signal (log2 normalized intensity) was -0.503.
Regarding TTTAATACAAGTATTATCTTCCATTTCTGC, the binding signal (log2 normalized intensity) was -0.426.
In the case of CAGGCACAAGAATGGTCATTCTCTGTTGCA, the binding signal (log2 normalized intensity) is -0.909.
In the case of GGGTGGGGGTGGGGAGGATAGCAGCCCAGC it was -1.21; in that of AGTGACTTAATTATCAGAAGAGGAGCGATG, 0.939.
Take GGTTTCTTGCTGAAGGTAGGACAGGGTGAT: the binding signal (log2 normalized intensity) was 1.05.
Regarding AGACTTTTTTTTTCTTAATTGCCCTTTGCC, the binding signal (log2 normalized intensity) amounted to 4.26.
In the case of AGGCAAACAGATGAAGTACTGTTCTAAATT it was -1.04; in that of AGGATAAAGTAAGGTGAAGCCCAGCAGCTC, -1.05.
In the case of TGGCTGAGATCTGGAATTGGGCCAAGCACA, the binding signal (log2 normalized intensity) is -0.451.
Consider CTGCAGCATCTGAGCAGATGTAAACATCAT, for which the binding signal (log2 normalized intensity) is -0.985.
For GCCCCCGCAGACCCAGTCTTAGGGACTAAG, the binding signal (log2 normalized intensity) amounted to 3.86.
For the sequence TCTCTGGGGGTCAGAAGTCCAACATTAGTA, the binding signal (log2 normalized intensity) was determined as 4.35.
For AGCCCAGAGACAGTGGAATCTACAGAATTC, the binding signal (log2 normalized intensity) is -1.06.
Take CGCCCAGTCCCGCCGCTTCCCCACCCCCTC: the binding signal (log2 normalized intensity) came out at 5.68.
Next, TGTGACCTCCAACTATTGCTCAGCAGGGAG: -1.06; GCGGGGAGTCTCCTGGGTAATCACCAAACT: -1.16.
